Measurements from patent publication US20210139579A1.

Target: human ROR1 (hROR1) on the cell surface (human) (UniProt Q01973)
Test: cell-based or functional assay

Chain of UniProt Q01973 (Q01973 30-937): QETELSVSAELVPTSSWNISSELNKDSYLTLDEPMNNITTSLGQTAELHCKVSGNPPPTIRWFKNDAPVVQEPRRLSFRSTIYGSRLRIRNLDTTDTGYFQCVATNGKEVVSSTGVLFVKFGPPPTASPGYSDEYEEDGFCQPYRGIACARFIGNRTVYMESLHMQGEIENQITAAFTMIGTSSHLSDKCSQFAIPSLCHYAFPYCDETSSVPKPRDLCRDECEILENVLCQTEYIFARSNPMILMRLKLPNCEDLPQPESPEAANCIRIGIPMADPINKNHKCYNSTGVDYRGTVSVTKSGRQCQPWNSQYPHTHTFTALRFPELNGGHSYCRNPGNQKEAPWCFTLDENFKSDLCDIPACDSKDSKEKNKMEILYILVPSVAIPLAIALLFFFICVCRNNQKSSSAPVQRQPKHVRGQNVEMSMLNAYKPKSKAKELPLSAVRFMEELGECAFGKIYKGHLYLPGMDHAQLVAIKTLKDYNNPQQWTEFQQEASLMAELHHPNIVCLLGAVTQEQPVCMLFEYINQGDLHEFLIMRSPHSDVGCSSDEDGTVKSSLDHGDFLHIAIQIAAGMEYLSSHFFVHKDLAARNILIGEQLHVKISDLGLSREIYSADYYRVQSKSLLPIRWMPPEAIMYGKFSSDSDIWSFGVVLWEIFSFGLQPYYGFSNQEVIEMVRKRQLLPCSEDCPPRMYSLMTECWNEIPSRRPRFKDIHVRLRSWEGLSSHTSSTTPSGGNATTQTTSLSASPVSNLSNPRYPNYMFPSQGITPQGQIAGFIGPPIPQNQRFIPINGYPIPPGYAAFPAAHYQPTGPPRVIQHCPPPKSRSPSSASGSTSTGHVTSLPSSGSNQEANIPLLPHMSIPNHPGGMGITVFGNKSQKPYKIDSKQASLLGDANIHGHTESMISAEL

| Binder | IC50, in vitro cell killing of 697 cells | IC50, in vitro cell killing of hROR1-overexpressing EMT-6 cells [nM] |
| --- | --- | --- |
| ERR1-324-scFv-G5-PNU (adc252) (Fc fusion, EDA-PNU-159682 derivative on the C-terminal glycine (G5-PNU joined by sortase)) ELVLTQTPSPVSAAVGGTVTINCQASQSVYGNNELAWYQQKPGQPPKLLIYRASILTSGVPSRFKGSGSGTQFTLTISNVQREDAATYYCLGGYVSQSYRAAFGGGTELEILGGGGSGGGGSGGGGSQSLEESGGGLVQPGESLTLTCTVSGFSLSRNGMTWVRQAPGKGLEWIGIITSSGDKYYATWAKGRFTISKTSSTTVDLKMTSLTTEDTATYFCARGTVSSDIWGPGTLVTISS[left out - human IgG1 Fc with C220S (EU numbers)]LPETGGGGG | 6.19 µg/mL |  |
| scFv-Ig_324_4-2-G3-PNU (adc598) (bispecific antibody, EDA-PNU-159682 derivative on the C-terminal glycine (G3-PNU joined by sortase)) heavy: QSLEESGGGLVQPGESLTLTCTVSGFSLSRNGMTWVRQAPGKGLEWIGIITSSGDKYYATWAKGRFTISKTSSTTVDLKMTSLTTEDTATYFCARGTVSSDIWGPGTLVTISSGGGGSGGGGSGGGGSGGGGSELVLTQTPSPVSAAVGGTVTINCQASQSVYGNNELAWYQQKPGQPPKLLIYRASILTSGVPSRFKGSGSGTQFTLTISNVQREDAATYYCLGGYVSQSYRAAFGGGTELEILGGGSGGGSGGGSGGGSGGGSQEQQKESGGGLFKPTDTLTLTCTASGFDISSYYMSWVRQAPGNGLEWIGAIGISGNAYYASWAKSRSTITRNTNLNTVTLKMTSLTAADTATYFCARDHPTYGMDLWGPGTLVTVSS[left out - human IgG1 constant region and a few adjoining residues] light: SYELTQLPSVSVSLGQTARITCEGNNIGSKAVHWYQQKPGLAPGLLIYDDDERPSGVPDRFSGSNSGDTATLTISGAQAGDEADYYCQVWDSSAYVFGGGTQLTVTGQPKAAPSVTLFPPSSEELQANKATLVCLISDFYPGAVTVAWKADSSPVKAGVETTTPSKQSNNKYAASSYLSLTPEQWKSHKSYSCQVTHEGSTVEKTVAPTECSGGGGGSLPETGGG |  | 0.9 |
| XBR1-402-scFv-324-scFv-G5-PNU (adc249) (bispecific antibody, EDA-PNU-159682 derivative on the C-terminal glycine (G5-PNU joined by sortase)) chain 1: SYELTQLPSVSVSLGQTARITCEGNNIGSKAVHWYQQKPGLAPGLLIYDDDERPSGVPDRFSGSNSGDTATLTISGAQAGDEADYYCQVWDSSAYVFGGGTQLTVTGGGGSGGGGSGGGGSQEQQKESGGGLFKPTDTLTLTCTASGFDISSYYMSWVRQAPGNGLEWIGAIGISGNAYYASWAKSRSTITRNTNLNTVTLKMTSLTAADTATYFCARDHPTYGMDLWGPGTLVTVSS[left out - human IgG1 Fc with changes]LPETGGGGG chain 2: ELVLTQTPSPVSAAVGGTVTINCQASQSVYGNNELAWYQQKPGQPPKLLIYRASILTSGVPSRFKGSGSGTQFTLTISNVQREDAATYYCLGGYVSQSYRAAFGGGTELEILGGGGSGGGGSGGGGSQSLEESGGGLVQPGESLTLTCTVSGFSLSRNGMTWVRQAPGKGLEWIGIITSSGDKYYATWAKGRFTISKTSSTTVDLKMTSLTTEDTATYFCARGTVSSDIWGPGTLVTISS[left out - human IgG1 Fc with changes]LPETGGGGG | 0.236 µg/mL |  |
| XBR1-402-scFv-G5-PNU (adc251) (Fc fusion, EDA-PNU-159682 derivative on the C-terminal glycine (G5-PNU joined by sortase)) SYELTQLPSVSVSLGQTARITCEGNNIGSKAVHWYQQKPGLAPGLLIYDDDERPSGVPDRFSGSNSGDTATLTISGAQAGDEADYYCQVWDSSAYVFGGGTQLTVTGGGGSGGGGSGGGGSQEQQKESGGGLFKPTDTLTLTCTASGFDISSYYMSWVRQAPGNGLEWIGAIGISGNAYYASWAKSRSTITRNTNLNTVTLKMTSLTAADTATYFCARDHPTYGMDLWGPGTLVTVSS[left out - human IgG1 Fc with C220S (EU numbers)]LPETGGGGG | 0.456 µg/mL |  |
| ERR1-324-LL-R12-G5-PNU (adc402) (bispecific antibody, EDA-PNU-159682 derivative on the C-terminal glycine (G5-PNU joined by sortase)) heavy: QSLEESGGGLVQPGESLTLTCTVSGFSLSRNGMTWVRQAPGKGLEWIGIITSSGDKYYATWAKGRFTISKTSSTTVDLKMTSLTTEDTATYFCARGTVSSDIWGPGTLVTISSASTKGPSVFPLAPQEQLVESGGRLVTPGGSLTLSCKASGFDFSAYYMSWVRQAPGKGLEWIATIYPSSGKTYYATWVNGRFTISSDNAQNTVDLQMNSLTAADRATYFCARDSYADDGALFNIWGPGTLVTISS[left out - human IgG1 constant region]LPETGGGGG light: ELVLTQTPSPVSAAVGGTVTINCQASQSVYGNNELAWYQQKPGQPPKLLIYRASILTSGVPSRFKGSGSGTQFTLTISNVQREDAATYYCLGGYVSQSYRAAFGGGTELEILRTVAAPSVFIFPPELVLTQSPSVSAALGSPAKITCTLSSAHKTDTIDWYQQLQGEAPRYLMQVQSDGSYTKRPGVPDRFSGSSSGADRYLIIPSVQADDEADYYCGADYIGGYVFGGGTQLTVTGQPKAAPSVTLFPPSSEELQANKATLVCLISDFYPGAVTVAWKADSSPVKAGVETTTPSKQSNNKYAASSYLSLTPEQWKSHKSYSCQVTHEGSTVEKTVAPTECSGGGGGSLPETGGGGG | 1.7 nM |  |
